# Source: the supplement of paper PMC8728848
# Some of the results follow.
# B1: PpFlo3 (Pichia pastoris) (protein)
# chain: MGSSHHHHHHSSGLVPRGSHMQESGNGTTSDTAYACDIGATPFDGFNATIYQYQASDDNSIQDPVFMSTGYLQRNQLHSTTGVTNPGFNIFTAGVATTTLYGIPNVNYQNMLLELKGYFRADASGNYGLSLRNIDDSAILFFGRETAFECCNENLIPLDEAPTDYSLFTIKEGEASTNPDSYTYTQYLEAGRYYPVRTFFANIRTRAVFNFTMTLPDGSELTDFQNYIFQFGALNQ
# Tests used:
# Experiment in all cases: glycan array binding signal (z-score within array); higher = stronger binding
# Settings in all cases: glycan notation: IUPAC condensed, linker removed
# [1] = biological target: Fuc(a1-2)Gal
# Summary of the method: (§1)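 From the Consortium for Functional Glycomics database, 3228 arrays were curated, keeping only those whose protein sequence was available. Binding is given as a within-array Z-score averaged across arrays sharing a protein sequence and across linkers. Negative Z-scores can be read as non-binding.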
# [2] = biological target: Fuc(a1-2)Gal(b1-3)GalNAc
# Summary of the method: as §1
# [3] = biological target: Fuc(a1-2)Gal(b1-3)GalNAc(a1-3)[Fuc(a1-2)]Gal(b1-4)Glc
# Summary of the method: as §1
# [4] = biological target: Fuc(a1-2)Gal(b1-3)GalNAc(a1-3)[Fuc(a1-2)]Gal(b1-4)GlcNAc
# Summary of the method: as §1
# [5] = biological target: Fuc(a1-2)Gal(b1-3)GalNAc(b1-3)Gal
# Summary of the method: as §1
# [6] = biological target: Fuc(a1-2)Gal(b1-3)GalNAc(b1-3)Gal(a1-4)Gal(b1-4)Glc
# Summary of the method: as §1
# [7] = biological target: Fuc(a1-2)Gal(b1-3)GalNAc(b1-4)[Neu5Ac(a2-3)]Gal(b1-4)Glc
# Summary of the method: as §1
# [8] = biological target: Fuc(a1-2)Gal(b1-3)GlcNAc
# Summary of the method: as §1
# [9] = biological target: Fuc(a1-2)Gal(b1-3)GlcNAc(b1-2)Man(a1-3)[Fuc(a1-2)Gal(b1-3)GlcNAc(b1-2)Man(a1-6)]Man(b1-4)GlcNAc(b1-4)GlcNAc
# Summary of the method: as §1
# [10] = biological target: Fuc(a1-2)Gal(b1-3)GlcNAc(b1-2)Man(a1-3)[Fuc(a1-2)Gal(b1-3)GlcNAc(b1-2)Man(a1-6)]Man(b1-4)GlcNAc(b1-4)[Fuc(a1-6)]GlcNAc
# Summary of the method: as §1
# [11] = biological target: Fuc(a1-2)Gal(b1-3)GlcNAc(b1-3)Gal(b1-4)Glc
# Summary of the method: as §1
# [12] = biological target: Fuc(a1-2)Gal(b1-3)GlcNAc(b1-3)GalNAc
# Summary of the method: as §1
# [13] = biological target: Fuc(a1-2)Gal(b1-3)GlcNAc(b1-3)[Fuc(a1-3)[Gal(b1-4)]GlcNAc(b1-6)]Gal(b1-4)Glc
# Summary of the method: as §1
# [14] = biological target: Fuc(a1-2)Gal(b1-3)GlcNAc(b1-3)[Gal(b1-4)GlcNAc(b1-6)]Gal(b1-4)Glc
# Summary of the method: as §1
# [15] = biological target: Fuc(a1-2)Gal(b1-3)GlcNAc(b1-3)[Neu5Ac(a2-6)Gal(b1-4)GlcNAc(b1-6)]Gal(b1-4)Glc
# Summary of the method: as §1
# [16] = biological target: Fuc(a1-2)Gal(b1-3)[Fuc(a1-4)]GlcNAc
# Summary of the method: as §1
# [17] = biological target: Fuc(a1-2)Gal(b1-3)[Fuc(a1-4)]GlcNAc(b1-2)Man(a1-3)[Fuc(a1-2)Gal(b1-3)[Fuc(a1-4)]GlcNAc(b1-2)Man(a1-6)]Man(b1-4)GlcNAc(b1-4)GlcNAc
# Summary of the method: as §1
# [18] = biological target: Fuc(a1-2)Gal(b1-3)[Fuc(a1-4)]GlcNAc(b1-3)[Fuc(a1-3)[Gal(b1-4)]GlcNAc(b1-6)]Gal(b1-4)Glc
# Summary of the method: as §1
# [19] = biological target: Fuc(a1-2)Gal(b1-3)[Fuc(a1-4)]GlcNAc(b1-3)[Gal(b1-4)GlcNAc(b1-6)]Gal(b1-4)Glc
# Summary of the method: as §1
# [20] = biological target: Fuc(a1-2)Gal(b1-4)Glc
# Summary of the method: as §1
# [21] = biological target: Fuc(a1-2)Gal(b1-4)Glc6S
# Summary of the method: as §1
# [22] = biological target: Fuc(a1-2)Gal(b1-4)GlcNAc
# Summary of the method: as §1
# [23] = biological target: Fuc(a1-2)Gal(b1-4)GlcNAc(b1-2)Man(a1-3)[Fuc(a1-2)Gal(b1-4)GlcNAc(b1-2)Man(a1-6)]Man(b1-4)GlcNAc(b1-4)GlcNAc
# Summary of the method: as §1
# [24] = biological target: Fuc(a1-2)Gal(b1-4)GlcNAc(b1-2)Man(a1-3)[Fuc(a1-2)Gal(b1-4)GlcNAc(b1-2)Man(a1-6)]Man(b1-4)GlcNAc(b1-4)[Fuc(a1-6)]GlcNAc
# Summary of the method: as §1
# [25] = biological target: Fuc(a1-2)Gal(b1-4)GlcNAc(b1-2)[Fuc(a1-2)Gal(b1-4)GlcNAc(b1-4)]Man(a1-3)[Fuc(a1-2)Gal(b1-4)GlcNAc(b1-2)Man(a1-6)]Man(b1-4)GlcNAc(b1-4)GlcNAc
# Summary of the method: as §1
# [26] = biological target: Fuc(a1-2)Gal(b1-4)GlcNAc(b1-3)Gal(b1-4)GlcNAc
# Summary of the method: as §1
# [27] = biological target: Fuc(a1-2)Gal(b1-4)GlcNAc(b1-3)Gal(b1-4)GlcNAc(b1-3)Gal(b1-4)GlcNAc
# Summary of the method: as §1
# [28] = biological target: Fuc(a1-2)Gal(b1-4)GlcNAc(b1-3)GalNAc
# Summary of the method: as §1
# [29] = biological target: Fuc(a1-2)Gal(b1-4)GlcNAc(b1-3)[Fuc(a1-2)Gal(b1-4)GlcNAc(b1-6)]GalNAc
# Summary of the method: as §1
# [30] = biological target: Fuc(a1-2)Gal(b1-4)GlcNAc6S
# Summary of the method: as §1
binder,measurement,setting,value
B1,glycan array binding signal (z-score),[1],-0.25
same,glycan array binding signal (z-score),[2],-0.256
same,glycan array binding signal (z-score),[3],-0.304
same,glycan array binding signal (z-score),[4],-0.217
same,glycan array binding signal (z-score),[5],-0.306
same,glycan array binding signal (z-score),[6],-0.282
same,glycan array binding signal (z-score),[7],-0.228
same,glycan array binding signal (z-score),[8],2.71
same,glycan array binding signal (z-score),[9],-0.268
same,glycan array binding signal (z-score),[10],-0.286
same,glycan array binding signal (z-score),[11],-0.263
same,glycan array binding signal (z-score),[12],-0.269
same,glycan array binding signal (z-score),[13],-0.201
same,glycan array binding signal (z-score),[14],-0.088
same,glycan array binding signal (z-score),[15],-0.208
same,glycan array binding signal (z-score),[16],-0.299
same,glycan array binding signal (z-score),[17],-0.245
same,glycan array binding signal (z-score),[18],-0.253
same,glycan array binding signal (z-score),[19],-0.259
same,glycan array binding signal (z-score),[20],-0.287
same,glycan array binding signal (z-score),[21],-0.1
same,glycan array binding signal (z-score),[22],-0.242
same,glycan array binding signal (z-score),[23],-0.257
same,glycan array binding signal (z-score),[24],-0.263
same,glycan array binding signal (z-score),[25],-0.253
same,glycan array binding signal (z-score),[26],-0.285
same,glycan array binding signal (z-score),[27],-0.064
same,glycan array binding signal (z-score),[28],-0.281
same,glycan array binding signal (z-score),[29],0.015
same,glycan array binding signal (z-score),[30],-0.289
